Source: PubChem BioAssay AID1963576 (National Center for Advancing Translational Sciences (NCATS), 2024)
Among all 46,000 compounds or so, about 60 (0.1%) were called active. Roughly 3% stayed inconclusive and do not appear here. The call rests on the fitted dose curve; in most records, active means well fitted inhibition curve with a large enough effect; inconclusive means small, poorly fitted or top-dose-only effect; inactive means no such curve, though single readings can be large or run the other way. This is one part of the list.

test: Primary qHTS assay for Inhibitors of ovarian cancer metastasis using an organotypic tumor microenvironment (TME) model.; further: nearly all actives have a fitted effect of over 65% in size;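 on activity change, negative = inhibition: plate controls were DMSO wells for no effect and tomatine positive control wells for full effect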; details: SKOV3ip1-GFP adhesion/invasion on 3D omental model, fluorescence; series mostly up to 45.8 µM; activity change, negative = inhibition: at the top concentration
Summary of the method: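 Primary human omental fibroblast/mesothelial 3D culture pre-formed 48 h. SKOV3ip1-GFP cells added with compounds (0.36-46 umol/L), incubated 2 h RT/16 h 37 C, fixed; GFP cells quantified at 488/509 nm.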

Activity change, negative = inhibition, inactive:
CC(C)CCNC(=O)c1cc(-c2cccnc2)nc2ccc(S(=O)(=O)N3CCC(C)CC3)cc12 8.06%
COc1ccc(NC(=O)c2nnn(-c3ccc(C(C)C)cc3)c2C)c(OC)c1 21.9%
CCOC(=O)CC(NC(=O)Cn1nnc(-c2ccc(Cl)cc2)n1)c1ccc(OC)cc1 (stereo not given) 6.33%
COc1ccc(-c2coc3cc(O)cc(O)c3c2=O)cc1 14.5%
Cn1c(CN2CCOCC2)nc2cc(NC(=O)c3ccccc3[N+](=O)[O-])ccc21 9.15%
CCOc1cccc2sc(N3CCN(C(=O)c4ccco4)CC3)nc12 -5.46%
CCn1c(C(=O)Nc2c(C)cccc2C)cc2sc(Cl)cc21 0.475%
COc1cccc(NC(=O)N(Cc2c[nH]c3ccccc23)C2CCCCCC2)c1 0.459%
Cc1ccc(NC(=O)c2oc3ccc(S(=O)(=O)N4CCCCCC4)cc3c2C)c(C)c1 -4.31%
COc1cccc(-c2noc(COc3ccc(C(C)(C)C)cc3)n2)c1 2.85%
Cc1ccccc1NS(=O)(=O)c1ccc2[nH]cc(C(=O)NC3CCCCC3)c(=O)c2c1 -4.34%
COc1ccc(OC)c(NC(=O)Cn2c(=O)n(-c3cccc(C)c3)c(=O)c3c2c2cc(C)ccc2n3C)c1 5.02%
Cc1ccc(NC(=O)c2c(NC(=O)c3ccc(F)cc3)sc3c2CCCC3)cc1C 13.8%
COc1ccc(NC(=O)c2cc3c(=O)n(Cc4cccs4)ccc3nc2C)cc1 6.21%
CCOc1ccc(-n2c(SCC(=O)Nc3cc(C)on3)nc3c([nH]c4ccccc43)c2=O)cc1 7.29%
CCc1ccccc1N(C)C(=O)Cn1cnc2sc(C)c(S(=O)(=O)N3CCC(C)CC3)c2c1=O 10%
CCOC(=O)c1cc(OC(=O)c2cc(OC)c(OC)c(OC)c2)n(-c2ccccc2)n1 -1.75%
CCOC(=O)c1c(C)oc2nc(C)nc(N3CCN(c4cc(Cl)ccc4C)CC3)c12 5.03%
COc1ccc(N(CC(=O)N2CCN(c3ccccc3)CC2)S(=O)(=O)c2c(C)nn(C)c2C)cc1 -2.24%
CCOC(=O)c1ccc(NC(=O)CSc2nc(-c3ccc(OC)cc3)cc(C(F)(F)F)c2C#N)cc1 -9.11%
CCn1cc2nc(SCC(=O)Nc3ccc(OC)c(Cl)c3)n(Cc3ccc(OC)cc3)c(=O)c2n1 -5.3%
CC(C)c1noc(N2CCC(COc3ccc(-c4ccc(S(C)(=O)=O)cc4)nc3)CC2)n1 -12%
Cc1ccc(Nc2ccc3cc(S(=O)(=O)N4CCCCC4)ccc3n2)cc1F -9.19%
N#Cc1nc(COc2ccccc2Cl)oc1NCCc1ccccc1 -4.52%
CCc1nnc(SC(CC)C(=O)Nc2ccc(OC)c(Cl)c2)c2cc3occc3n12 (stereo not given) 0.634%
CC(=O)c1ccc(NC(=O)c2cn(-c3ccccc3)nc2-c2ccc(Br)cc2)cc1 5.85%
Cc1cc(C)c(NS(=O)(=O)c2ccc3c(c2)CC(C)N3C(=O)C2CCC2)c(C)c1 (stereo not given) 6.12%
COc1ccccc1NC(=O)c1c(C)cc(C)nc1SCC(=O)Nc1ccc(C)c(C)c1 5.93%
Cc1ccc(CCNC(=O)CN(c2cc(C)cc(C)c2)S(=O)(=O)c2c(C)noc2C)cc1 6.85%
COc1ccccc1Nc1nc(-c2ccc(F)cc2)c2c(n1)-c1ccccc1OC2 -27.5%
Cc1ccc(-c2ccc(=O)n(CC(=O)NCCc3ccc(Cl)cc3)n2)cc1 7.81%
Cc1ccc(Cl)cc1N1CCN(C(=O)C2CCN(S(=O)(=O)Cc3ccccc3)CC2)CC1 -2.36%
CCCCNS(=O)(=O)c1ccc(N2CCCCS2(=O)=O)cc1 -3.06%
CCCOc1ccc(CNC(=O)c2ccc3c(c2)N(Cc2ccccc2)CCS3)cc1 -2.65%
COc1ccc(NC(=O)c2c(NCc3cccs3)sc3c2CCCC3)c(OC)c1 2.2%
CC(=O)n1nc(-c2cccnc2)nc1NCc1ccc(F)cc1 -1.39%
O=C(OCc1cc(=O)n2nc(-c3cccs3)sc2n1)c1ccccc1 3.5%

outcome, inactive:
O=C(Cn1nc(-c2ccccc2)c2c(c1=O)CCCC2)Nc1ccc(F)c(Cl)c1
CN(C(=O)c1cc2c(Cl)nc3ccccc3c2s1)c1cccc(C(F)(F)F)c1
COc1ccc(-n2c(C)nnc2SCc2nc(-c3ccc(OC)c(OC)c3)no2)cc1
COc1cccc(CNC(=O)CCCn2nc(C)c3sc4ccccc4c3c2=O)c1
COc1ccc(-c2cc3nc(C)c(CCC(=O)NCc4ccccc4Cl)c(C)n3n2)c(OC)c1
O=C(Cc1ccccc1)N(Cc1cccnc1)c1nc2c(Cl)cccc2s1
COc1ccc(C)cc1NC(=O)Cn1c(=O)oc2cc(S(=O)(=O)N3CCCCC3)ccc21
CCc1cccc(C)c1NC(=O)C1CCN(S(=O)(=O)c2c(C)noc2/C=C/c2c(C)cc(C)cc2C)CC1
CCOc1ccc(NC(=O)NCCN2CCN(c3cccc(C)c3C)CC2)cc1
O=C(CCC1CCCC1)N1CCc2c([nH]c3ccccc23)C1c1ccc(F)cc1 (stereo not given)
CCOc1ccc(C2CC(=O)NC(NC(=O)c3cccc(Cl)c3)=N2)cc1 (stereo not given)
COc1cccc(-n2ccn(CC(=O)NCc3ccc(C)cc3)c(=O)c2=O)c1
COc1ccccc1CNC(=O)CCCn1c(=O)c2ccccc2n(Cc2ccc(F)cc2)c1=O
COc1ccccc1-c1noc(-c2ccc(N3CCN(C)CC3)c([N+](=O)[O-])c2)n1
CCOC(=O)c1c(C)c(-c2ccccc2)n(CC(=O)Nc2ccc(OCC)cc2)c1C
CCc1ccc(N(CC)C(=O)CCn2cnc3onc(-c4ccc(F)cc4)c3c2=O)cc1
COc1ccc(-c2cn3c(n2)sc2cc(C(=O)Nc4cccc(SC)c4)ccc23)cc1
Cc1ccc(CSC2=Nc3ccccc3C3=NC(CC(=O)NCc4cccs4)C(=O)N23)c(C)c1 (stereo not given)
O=C(Nc1ccc2nc(SCCOc3ccccc3)sc2c1)c1ccccc1F
COc1cccc2c1cc1c(=O)n(CC(=O)N3CCN(c4cccc(Cl)c4)CC3)nc(C)n12
COC(=O)C(CCSC)NC(=O)Cn1ncc2c([nH]c3ccccc32)c1=O (stereo not given)
Cc1ccc(CNC(=O)CN2C(=O)CSc3ccc(S(=O)(=O)N(C)C)cc32)cc1
CCn1cc(C(=O)OCC(=O)Nc2cc(OC)cc(OC)c2)c(=O)c2ccc(C)nc21
